Measured values reported in PubChem BioAssay AID1768 (National Center for Advancing Translational Sciences (NCATS), 2009).
Among all 270,000 compounds or so, about 620 (0.23%) were called active. Inconclusive means that the source gave no clear call. Such entries were picked first, then a sample of the others. Calls follow the shape of the dose curve; as a rule, active = well fitted inhibition curve with a large enough effect in the polarisation, with a control signal flat (not every such curve was filed as active); inconclusive = small, poorly fitted or top-dose-only effect, or effect the other way, or a change in a side signal; inactive = no such curve, though single readings can be large or run the other way; the % refers to the polarisation. A potency beside an inconclusive call is a rough fit, not a confirmed value. “Side channel” marks fits to a control or component signal instead of the main read-out.

What follows are compounds tested against Menin (Homo sapiens) (UniProt O00255) (assay: qHTS Assay for Inhibitors Targeting the Menin-MLL Interaction in MLL Related Leukemias: Competition With Texas Red Labeled MLL-derived Mutant Peptide). Settings: fluorescence polarization; FP activity change, negative = inhibition: at 61.6 µM (top of the series).
Sequence of UniProt O00255 (O00255 whole entry, looked up): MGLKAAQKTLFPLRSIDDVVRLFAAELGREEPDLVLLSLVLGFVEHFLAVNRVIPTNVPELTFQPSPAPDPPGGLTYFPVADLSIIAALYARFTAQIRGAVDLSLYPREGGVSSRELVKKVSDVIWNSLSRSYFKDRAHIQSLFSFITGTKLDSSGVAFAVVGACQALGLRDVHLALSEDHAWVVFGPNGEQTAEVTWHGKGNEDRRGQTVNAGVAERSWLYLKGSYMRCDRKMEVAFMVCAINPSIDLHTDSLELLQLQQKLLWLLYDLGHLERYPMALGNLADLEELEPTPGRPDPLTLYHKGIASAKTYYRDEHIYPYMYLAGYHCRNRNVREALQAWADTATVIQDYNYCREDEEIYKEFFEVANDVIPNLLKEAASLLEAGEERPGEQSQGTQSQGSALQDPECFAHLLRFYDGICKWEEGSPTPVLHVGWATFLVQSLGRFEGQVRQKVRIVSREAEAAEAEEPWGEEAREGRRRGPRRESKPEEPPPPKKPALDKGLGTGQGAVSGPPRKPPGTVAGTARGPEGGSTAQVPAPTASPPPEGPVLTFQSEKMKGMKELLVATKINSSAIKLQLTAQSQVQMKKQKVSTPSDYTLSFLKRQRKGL

For FP activity change, negative = inhibition in this document: % of control where 0% means no effect.
Potency is read from the fitted curve at half-maximal effect; tags tell the direction and shape of the fitted curve or compound fluorescence and quenching.

Potency, inconclusive:
COc1ccc(OCC(=O)OCC(=O)Nc2ccc(S(=O)(=O)N3CCCCC3)cc2)cc1 7.94 µM [quencher, side channel, partial curve]
O=C(COc1ccc(Br)cc1)Nc1ccc(NC(=O)c2ccccc2)cc1 12.6 µM [fluorescent, side channel, partial curve]
CCCCN(C)CCNC(=O)c1cc2c(-c3cccc(OC)c3)nn(C)c2s1 39.8 µM [inhibitor, partial curve]
CC(C)NCC(O)COC1CCC(C(C)(C)C)CC1 (stereo not drawn) 31.6 µM [fluorescent, side channel, single point]
CCc1ccc(NC(=O)Nc2cccc(OC)c2)cc1 15.8 µM [quencher, side channel, partial curve]
O=C1c2cccc3c([N+](=O)[O-])c(O)cc(c23)C(=O)N1Nc1ccccc1 15.8 µM [quencher, side channel, partial curve]
Cc1ccc(/C(O)=C2/C(=O)C(=O)N(c3ccccn3)C2c2ccc(F)cc2)cc1 (stereo not drawn) 22.4 µM [quencher, side channel, single point]
COCCN(C(=O)CCC(=O)Nc1cc(C)on1)C(C(=O)NC(C)(C)C)c1ccccc1Cl (stereo not drawn) 22.4 µM [inhibitor, partial curve, poor fit]
CCCCCOC(=O)c1ccc(NC(=O)c2cccc(NC(=O)c3ccccc3C(=O)O)c2)cc1 17.8 µM [quencher, side channel, partial curve]
CCCCN1C(=O)C2(NNc3ccccc3O2)c2ccccc21 (stereo not drawn) 14.1 µM [quencher, side channel, partial curve]
COC(=O)c1ccc(C2c3c(oc4cc(C)c(C)cc4c3=O)C(=O)N2CCCN(C)C)cc1 (stereo not drawn) 15.8 µM [fluorescent, side channel, partial curve]
COc1ccc(C(=O)NC(=S)Nc2ccc([N+](=O)[O-])cc2C)cc1OC 35.5 µM [quencher, side channel, single point]
CCOc1ccc(NC(=O)Nc2ccc3nccnc3c2)cc1 15.8 µM [quencher, side channel, partial curve]
Cc1ccc2c(c1)CCCN2C(=O)Nc1ccc2c(c1)OCO2 22.4 µM [inhibitor, partial curve]
C/C(CCN1CCCc2nc(C)c(C)cc21)=N\O[C@@H](C)CN1CCCCc2nc(C)c(C)cc21 3.55 µM [inhibitor, single point]
CSc1nsc(SCC(=O)Nc2nc3ccc(C)cc3s2)n1 39.8 µM [inhibitor, single point]
COc1ccc([N+](=O)[O-])cc1NC(=S)NC(NC(=O)Cc1ccc(OC)c(OC)c1)C(Cl)(Cl)Cl (stereo not drawn) 8.91 µM [quencher, side channel, partial curve]
CCc1nnc(NS(=O)(=O)c2ccc(N/C=C\C(=O)c3ccc4ccccc4c3)cc2)s1 7.08 µM [quencher, side channel, partial curve]
Cc1c(C(=O)Nc2ccc3c(c2)OCO3)oc2ccccc12 22.4 µM [quencher, side channel, single point]
O=C(NC(=S)Nc1ccc(N2CCOCC2)c(Cl)c1)C(c1ccccc1)c1ccccc1 6.31 µM [inhibitor, full curve, poor fit]
CC(C)Oc1ccc(CNC(=O)Cn2ccc3cc(S(=O)(=O)N4CCCC4)ccc32)cc1 35.5 µM [fluorescent, side channel, single point]
O=C(Nc1ccc(NC(=O)c2ccccc2Br)cc1)c1ccccc1 39.8 µM [fluorescent, side channel, single point]
Cc1ccc(-n2nccc2-c2nn(-c3cccc(C(F)(F)F)c3)c(=O)n(C)c2=O)cc1 22.4 µM [fluorescent, side channel, single point]
COc1ccc(C2Nc3cccc4cccc(c34)N2)cc1 10 µM [quencher, side channel, partial curve]
CCOc1ccc(C(=O)Nc2ccccc2C(=O)O)cc1 12.6 µM [quencher, side channel, partial curve]
COc1ccc(NS(=O)(=O)c2cc(NC(=O)c3cnccn3)ccc2OC)cc1Br 39.8 µM [quencher, side channel, single point]
Cc1ccc(C(c2nnnn2C2CCCCC2)N2CCN3CCCC3C2)cc1 (stereo not drawn) 0.708 µM [inhibitor, full curve, poor fit]
CCOc1ccc(CC2S/C(=N/N=C/c3ccco3)NC2=O)cc1 (stereo not drawn) 39.8 µM [fluorescent, side channel, single point]
CCc1nc2c(cnn2-c2ccc(F)cc2)c(=O)n1-c1ccc(N2CCC(C)CC2)cc1 4.47 µM [fluorescent, side channel, full curve, poor fit]
Cc1csc(=Nc2c(C)n(C)n(-c3ccccc3)c2=O)n1Cc1ccccc1 11.2 µM [fluorescent, side channel, partial curve]
COc1ccc(C(C(=O)NC(C)(C)C)N(CCC(C)C)C(=O)CCC(=O)Nc2cc(C)on2)cc1 (stereo not drawn) 25.1 µM [fluorescent, side channel, partial curve, poor fit]
S=C1NC[C@H](CC2CCCCC2)N1CC1CCCCC1 14.1 µM [fluorescent, side channel, partial curve]
Cc1cc(C)c(NC(=O)C2C3/C=C\CCCCC32)c(C)c1 (stereo not drawn) 11.2 µM [inhibitor, partial curve]
O=C(NCc1ccc(F)cc1F)c1cc(COc2c(F)cccc2F)on1 31.6 µM [fluorescent, side channel, single point]
Cc1cc(O)c(CN(C)C)c2c1C(=O)/C(=C/c1ccco1)O2 35.5 µM [quencher, side channel, single point]
COc1ccc(NC(=S)Nc2ccc3snnc3c2)cc1 22.4 µM [quencher, side channel, partial curve]
CC(NC(=O)C(=O)NN=C1CCCCCC1)c1ccccc1 (stereo not drawn) 39.8 µM [inhibitor, single point]
CCCCCCc1cc2cc(S(=O)(=O)c3ccc(Cl)cc3)c(=O)oc2cc1O 39.8 µM [quencher, side channel, single point]
COc1ccc(OC)c(-c2nnc(NC(=O)C(C)Sc3nncn3C)s2)c1 (stereo not drawn) 28.2 µM [inhibitor, single point]
O=S(=O)(Nc1nc2ccc(Cl)cc2s1)c1cccs1 22.4 µM [quencher, side channel, single point]
O=C(N/N=C\c1ccc(CN(Cc2ccc(Cl)cc2)S(=O)(=O)c2ccccc2)o1)C(=O)Nc1ccc(F)cc1 22.4 µM [inhibitor, single point]
Cc1nc2cc(NCc3cc([N+](=O)[O-])ccc3O)ccc2n1Cc1ccccc1 14.1 µM [quencher, side channel, partial curve]
CCOC(=O)Cn1nnnc1CN(Cc1ccccc1)Cc1cc2cc(CC)ccc2[nH]c1=O 3.98 µM [fluorescent, side channel, single point]
CCCCC(c1nnnn1CC1CCCO1)N1CCN(c2nc3ccccc3s2)CC1 (stereo not drawn) 39.8 µM [inhibitor, single point]
Cc1cccc(C(=O)N2CCC(=O)N(C(COCc3ccc(Cl)cc3)Cc3ccccc3)CC2)c1 (stereo not drawn) 5.62 µM [fluorescent, side channel, full curve, poor fit]
COc1cc(/C=C2\SC(=N)N(c3ccc(F)cc3)C2=O)ccc1O 35.5 µM [quencher, side channel, single point]
C=CCn1cccc(C(=O)Nc2ccc(C)c(Cl)c2)c1=O 35.5 µM [fluorescent, side channel, single point]

FP activity change, negative = inhibition, inactive:
O=C(Nc1ccccc1)c1cc2ccccc2o1 14.1%
NC(=O)Cc1ccc(Nc2nnc(-c3ccc(O)cc3)c3ccccc23)cc1 15.9%
CCOC(=O)COc1c(OC)cc(Cl)cc1C1Nc2ccccc2C(=O)N1c1ccc(F)cc1 (stereo not drawn) 2.9%
CC(C)COCC(O)CCC(=O)NNC(=S)Nc1ccccc1 (stereo not drawn) 3.87%
O=C(O)c1ccc(Cl)c(N2C(=O)Nc3ccccc3N2O)c1 -1.87%
O=c1oc2cc(OCc3c(F)c(F)c(F)c(F)c3F)ccc2cc1-c1ccccn1 -1.64%
Oc1ccc(CN2CCCc3ccccc32)c2cccnc12 3.66%
CC1=CN2C(=N)/C(=C/c3ccc([N+](=O)[O-])o3)C(=O)N=C2S1 22.7%
Cc1c(CN2CC[C@@H](N3CCN(c4ccccn4)CC3)[C@H](O)C2)[nH]c2ccc(F)cc12 -9.78%
N=c1ccn(Cc2ccc(Cl)cc2Cl)cc1 -19.4%
O=C(CSc1nc2ccc([N+](=O)[O-])cc2[nH]1)NC1CCCCCC1 -11.7%
